In all, about 310,000 compounds went through this assay and about 14,000 (4.5%) showed an effect of 50% or more. Effects have a minus sign here. Some of the results follow.
Target: human ether-à-go-go-related gene (hERG) potassium channel (human, UniProt Q12809)
Assay: primary screen, population patch clamp on CHO cells stably expressing hERG
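Note: peak tail current of the secondary pulse compared with the same well before compound.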

Chain of human ether-à-go-go-related gene (hERG) potassium channel (Q12809 whole entry, looked up): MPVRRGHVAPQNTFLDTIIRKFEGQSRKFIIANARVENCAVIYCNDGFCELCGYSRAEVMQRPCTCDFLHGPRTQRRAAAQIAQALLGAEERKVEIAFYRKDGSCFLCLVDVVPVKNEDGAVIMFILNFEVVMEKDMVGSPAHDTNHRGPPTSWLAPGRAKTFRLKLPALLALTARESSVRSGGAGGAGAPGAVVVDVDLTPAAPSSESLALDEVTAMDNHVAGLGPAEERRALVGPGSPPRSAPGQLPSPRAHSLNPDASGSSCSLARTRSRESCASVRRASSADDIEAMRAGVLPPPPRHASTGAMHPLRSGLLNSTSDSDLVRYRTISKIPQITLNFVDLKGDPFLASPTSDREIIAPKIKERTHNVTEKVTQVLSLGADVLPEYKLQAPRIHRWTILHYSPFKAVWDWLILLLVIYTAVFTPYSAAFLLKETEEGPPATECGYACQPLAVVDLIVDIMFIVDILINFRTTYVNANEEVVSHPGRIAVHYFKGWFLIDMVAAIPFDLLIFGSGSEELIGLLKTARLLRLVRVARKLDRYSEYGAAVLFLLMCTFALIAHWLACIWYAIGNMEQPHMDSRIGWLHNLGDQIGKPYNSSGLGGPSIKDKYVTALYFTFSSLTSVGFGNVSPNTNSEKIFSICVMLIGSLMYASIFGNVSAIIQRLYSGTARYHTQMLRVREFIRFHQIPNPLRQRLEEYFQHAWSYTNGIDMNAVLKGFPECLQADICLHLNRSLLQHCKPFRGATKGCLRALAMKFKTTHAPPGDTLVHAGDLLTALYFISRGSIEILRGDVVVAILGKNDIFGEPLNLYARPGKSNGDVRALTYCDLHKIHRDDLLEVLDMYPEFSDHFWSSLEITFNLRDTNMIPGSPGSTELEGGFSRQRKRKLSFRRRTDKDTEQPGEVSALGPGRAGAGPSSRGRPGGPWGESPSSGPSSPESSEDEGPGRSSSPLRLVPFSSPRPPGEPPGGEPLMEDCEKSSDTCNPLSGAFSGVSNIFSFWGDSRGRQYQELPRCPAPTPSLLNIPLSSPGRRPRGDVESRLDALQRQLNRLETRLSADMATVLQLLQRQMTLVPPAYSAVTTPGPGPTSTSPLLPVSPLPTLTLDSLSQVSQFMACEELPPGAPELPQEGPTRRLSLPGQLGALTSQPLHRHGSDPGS

Q: With `O=C(NCCCN1CCOCC1)c1csc2c1CCCC2` as the molecule, how does the “hERG current change (%, negative = inhibition) at 10uM” value read?
A: -7.57%

Q: How did the “hERG current change (%, negative = inhibition) at 10uM” value turn out when `CCn1nc(C)c(CNC(=O)CCc2nnc(-c3ccc(C(C)=O)s3)o2)c1C` was run?
A: 1.46%

Q: `O=C(NNC(=O)c1ccc(Cl)nc1)c1ccncc1` was tested. Which “hERG current change (%, negative = inhibition) at 10uM” value did it give?
A: -5.05%

Q: `COc1ccc(Cl)cc1-c1nc(-c2ccncc2)no1` was tested. Which “hERG current change (%, negative = inhibition) at 10uM” value did it give?
A: 14%

Q: For `COc1ccc(NC(=O)CCS(=O)(=O)c2ccc(Cl)cc2)cc1`, which “hERG current change (%, negative = inhibition) at 10uM” value is on record?
A: 2.4%

Q: For `Cc1ccc(OCC(=O)Nc2cccc3c2CCCC3)cc1C`, which “hERG current change (%, negative = inhibition) at 10uM” value is on record?
A: 2.96%

Q: How did the “hERG current change (%, negative = inhibition) at 10uM” value turn out when `ClCCCc1cn(C[C@H]2CC[C@@H]([C@@H]3CC[C@H](Cn4cc(CCCCl)nn4)O3)O2)nn1` was run?
A: -33.6%

Q: With `CCOC(=O)c1cc(C(C)C)sc1NC(=O)COC(=O)CCS(=O)(=O)c1ccccc1` as the molecule, how does the “hERG current change (%, negative = inhibition) at 10uM” value read?
A: -0.5%

Q: How did the “hERG current change (%, negative = inhibition) at 10uM” value turn out when `CS(=O)(=O)N1CCN(c2ccccc2NC(=O)c2ccc(Cl)cc2)CC1` was run?
A: -3.46%

Q: With `O=C(Cn1cnc2ccccc2c1=O)Nc1nnc(SCc2ccccc2)s1` as the molecule, how does the “hERG current change (%, negative = inhibition) at 10uM” value read?
A: -1.67%

Q: `CC(=O)NC(c1ccccc1)c1cc(Cl)c2cccnc2c1O` (stereo not shown) was tested. Which “hERG current change (%, negative = inhibition) at 10uM” value did it give?
A: -1.29%

Q: For `N/C(=N\OC(=O)/C=C/c1ccccc1)c1ccccn1`, which “hERG current change (%, negative = inhibition) at 10uM” value is on record?
A: -4%

Q: With `Cc1ccc(N(C(=O)c2csnn2)C(C(=O)NC2CCCC2)c2ccncc2)c(C)c1` (stereo not shown) as the molecule, how does the “hERG current change (%, negative = inhibition) at 10uM” value read?
A: -9.5%

Q: How did the “hERG current change (%, negative = inhibition) at 10uM” value turn out when `CCN(C)Cc1c(C(=O)N2CCc3ccccc3C2)nc2ccc(Cl)cn12` was run?
A: -31.1%

Q: With `COc1ccccc1COCC(O)CN(Cc1ccco1)Cc1ccccc1O` (stereo not shown) as the molecule, how does the “hERG current change (%, negative = inhibition) at 10uM” value read?
A: -27%

Q: For `Cc1c(Cl)cccc1Nc1ccccc1C(=O)O`, which “hERG current change (%, negative = inhibition) at 10uM” value is on record?
A: 16.6%

Q: Which “hERG current change (%, negative = inhibition) at 10uM” value does the source give for `COc1ccc(CCNC(=O)C2CCCN(S(=O)(=O)c3cccc4nonc34)C2)cc1OC` (stereo not shown) here?
A: 10.5%

Q: With `CCOc1ccccc1C(=O)NCC(=O)OCC(=O)c1ccc2c(c1)OCCO2` as the molecule, how does the “hERG current change (%, negative = inhibition) at 10uM” value read?
A: -3.13%

Q: How did the “hERG current change (%, negative = inhibition) at 10uM” value turn out when `O=C(O)c1cc(N/N=C/c2ccc3c(c2)OCO3)ccc1Cl` was run?
A: 15.1%

Q: `O=C(Nc1cc(Cl)ccc1N1CCCC1)C1=COCCO1` was tested. Which “hERG current change (%, negative = inhibition) at 10uM” value did it give?
A: -6.1%

Q: For `CCCCNC(=O)COC(=O)CCC(=O)c1ccc(F)cc1`, which “hERG current change (%, negative = inhibition) at 10uM” value is on record?
A: 5.12%

Q: How did the “hERG current change (%, negative = inhibition) at 10uM” value turn out when `c1cnc(Oc2ccc(-c3nnco3)cc2)cn1` was run?
A: 13.6%

Q: How did the “hERG current change (%, negative = inhibition) at 10uM” value turn out when `CC(=O)Oc1ccc(-n2c(=O)c3ccccc3c3ccccc3c2=O)cc1` was run?
A: 8.43%

Q: For `O=C(NCCCN1CCCCC1)c1ccc2c(c1)NC(=O)C(N1CCCCC1)S2` (stereo not shown), which “hERG current change (%, negative = inhibition) at 10uM” value is on record?
A: 11%

Q: Which “hERG current change (%, negative = inhibition) at 10uM” value does the source give for `CCOC(=O)Cn1c(=O)n(CC(=O)OCC)c2ccccc21` here?
A: 12.3%

Q: Which “hERG current change (%, negative = inhibition) at 10uM” value does the source give for `CCCc1nc2ccccc2c(=O)n1NC(=O)c1c(O)c2ccccc2n(C)c1=O` here?
A: 5.64%

Q: `Cc1ccc(NC(=O)CSCC(=O)O)cc1` was tested. Which “hERG current change (%, negative = inhibition) at 10uM” value did it give?
A: 39.6%

Q: With `Cn1c(N)c(C(=O)N/N=C/c2ccccc2)sc1=S` as the molecule, how does the “hERG current change (%, negative = inhibition) at 10uM” value read?
A: 19.6%

Q: Which “hERG current change (%, negative = inhibition) at 10uM” value does the source give for `COc1ccc(NC(=O)CS(=O)(=O)c2cn(CC(=O)N(C(C)C)C(C)C)c3ccccc23)c(OC)c1` here?
A: -19.3%

Q: How did the “hERG current change (%, negative = inhibition) at 10uM” value turn out when `Cc1ccc(C2(C)NC(=O)N(CC(=O)NCc3ccccc3Cl)C2=O)cc1` (stereo not shown) was run?
A: 9.54%

Q: Which “hERG current change (%, negative = inhibition) at 10uM” value does the source give for `O=C(O)COCC(=O)Nc1ccc2c(c1)oc1ccccc12` here?
A: 13.5%

Q: With `CC(C)Oc1ccc(S(=O)(=O)N2CCCCC2)cc1NC(=O)CN1C(=O)NC(C)(C2CC2)C1=O` (stereo not shown) as the molecule, how does the “hERG current change (%, negative = inhibition) at 10uM” value read?
A: -33.1%

Q: How did the “hERG current change (%, negative = inhibition) at 10uM” value turn out when `Cc1ccc(S(=O)(=O)N2CCN(C(=O)CC(C)(C)C)CC2)cc1` was run?
A: 4.97%

Q: How did the “hERG current change (%, negative = inhibition) at 10uM” value turn out when `CC(=O)c1cccc(Nc2nc(=O)c3cccnc3s2)c1` was run?
A: -3.05%

Q: How did the “hERG current change (%, negative = inhibition) at 10uM” value turn out when `CC(C)(C)NC(=O)C(c1ccco1)N(C(=O)c1ccc(CN2CCOCC2)o1)c1ccccc1` (stereo not shown) was run?
A: -3.79%

Q: For `O=C(Cc1ccccc1)OCCNC(=O)c1ccc[nH+]c1.[Cl-]`, which “hERG current change (%, negative = inhibition) at 10uM” value is on record?
A: -2.47%

Q: How did the “hERG current change (%, negative = inhibition) at 10uM” value turn out when `O=C1C(=Nc2cccc(Cl)c2)CC(c2ccc(Cl)cc2)N1c1cccc(Cl)c1` (stereo not shown) was run?
A: 10.4%

Q: How did the “hERG current change (%, negative = inhibition) at 10uM” value turn out when `O=C(NCCCN1CCOCC1)c1ccc(Sc2ccccc2Cl)c([N+](=O)[O-])c1` was run?
A: -22.7%

Q: How did the “hERG current change (%, negative = inhibition) at 10uM” value turn out when `Cc1cc(C)cc(NC(=O)CSc2nnc(-c3ccncc3)o2)c1` was run?
A: -22.8%

Q: For `NC(=O)c1ccc(NC(=O)COC(=O)c2ccc(Cl)nc2)cc1`, which “hERG current change (%, negative = inhibition) at 10uM” value is on record?
A: 2.17%

Q: How did the “hERG current change (%, negative = inhibition) at 10uM” value turn out when `CCN(CC)S(=O)(=O)c1ccc(OC)c(NC(=O)c2cc3c(=O)n4ccccc4nc3s2)c1` was run?
A: 5.02%

Q: How did the “hERG current change (%, negative = inhibition) at 10uM” value turn out when `O=C(NCCCn1ccnc1)c1csc2ccccc12` was run?
A: -14.3%

Q: For `O=C(c1ccco1)C(O)c1ccco1` (stereo not shown), which “hERG current change (%, negative = inhibition) at 10uM” value is on record?
A: 25.4%

Reference: paper PMC4336329 (PLoS ONE, 2015)
